Results taken from the supplement of paper PMC8728848.
The other results are listed elsewhere or left out.

Legend:
Test in all cases: glycan array binding signal (z-score within array); higher = stronger binding
Details in all cases: glycan notation: IUPAC condensed, linker removed
[1] = molecular target: Neu5Ac(a2-3)Gal(b1-3)[Fuc(a1-4)]GlcNAc(b1-3)Gal(b1-4)[Fuc(a1-3)]GlcNAc
Summary of the method: (§1)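 The Consortium for Functional Glycomics database supplied 3228 glycan arrays, of which those lacking an available protein sequence were dropped. The binding signal, a within-array Z-score, was averaged across arrays of the same protein sequence and across linkers. Negative scores can be read as non-binding.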

[2] = molecular target: Neu5Ac(a2-3)Gal(b1-3)[Neu5Ac(a2-3)Gal(b1-4)]GlcNAc
Summary of the method: as §1

[3] = molecular target: Neu5Ac(a2-3)Gal(b1-3)[Neu5Ac(a2-6)]GalNAc
Summary of the method: as §1

Neu5Ac(a2-3)Gal(b1-4)Glc = molecular target: Neu5Ac(a2-3)Gal(b1-4)Glc
Summary of the method: as §1

[4] = molecular target: Neu5Ac(a2-3)Gal(b1-4)GlcNAc
Summary of the method: as §1

[5] = molecular target: Neu5Ac(a2-3)Gal(b1-4)GlcNAc(b1-2)Man(a1-3)[GlcNAc(b1-2)Man(b1-4)GlcNAc(b1-2)Man(a1-6)]Man(b1-4)GlcNAc(b1-4)GlcNAc
Summary of the method: as §1

[6] = molecular target: Neu5Ac(a2-3)Gal(b1-4)GlcNAc(b1-2)Man(a1-3)[Neu5Ac(a2-6)Gal(b1-4)GlcNAc(b1-2)Man(a1-6)]Man(b1-4)GlcNAc(b1-4)GlcNAc
Summary of the method: as §1

[7] = molecular target: Neu5Ac(a2-3)Gal(b1-4)GlcNAc(b1-3)Gal(b1-3)GlcNAc
Summary of the method: as §1

[8] = molecular target: Neu5Ac(a2-3)Gal(b1-4)GlcNAc(b1-3)Gal(b1-4)GlcNAc
Summary of the method: as §1

[9] = molecular target: Neu5Ac(a2-3)Gal(b1-4)GlcNAc(b1-3)Gal(b1-4)GlcNAc(b1-3)Gal(b1-4)GlcNAc
Summary of the method: as §1

[10] = molecular target: Neu5Ac(a2-3)Gal(b1-4)GlcNAc(b1-3)Gal(b1-4)[Fuc(a1-3)]GlcNAc
Summary of the method: as §1

[11] = molecular target: Neu5Ac(a2-3)Gal(b1-4)GlcNAc(b1-6)[Gal(b1-3)]GalNAc
Summary of the method: as §1

[12] = molecular target: Neu5Ac(a2-3)Gal(b1-4)GlcNAc(b1-6)[Neu5Ac(a2-3)Gal(b1-3)]GalNAc
Summary of the method: as §1

[13] = molecular target: Neu5Ac(a2-3)Gal(b1-4)GlcNAc6S
Summary of the method: as §1

[14] = molecular target: Neu5Ac(a2-3)Gal(b1-4)[Fuc(a1-3)]GlcNAc
Summary of the method: as §1

[15] = molecular target: Neu5Ac(a2-3)Gal(b1-4)[Fuc(a1-3)]GlcNAc(b1-3)Gal
Summary of the method: as §1

[16] = molecular target: Neu5Ac(a2-3)Gal(b1-4)[Fuc(a1-3)]GlcNAc(b1-3)Gal(b1-4)GlcNAc
Summary of the method: as §1

[17] = molecular target: Neu5Ac(a2-3)Gal(b1-4)[Fuc(a1-3)]GlcNAc(b1-3)Gal(b1-4)[Fuc(a1-3)]GlcNAc(b1-3)Gal(b1-4)[Fuc(a1-3)]GlcNAc
Summary of the method: as §1

[18] = molecular target: Neu5Ac(a2-3)Gal(b1-4)[Fuc(a1-3)]GlcNAc(b1-6)[Gal(b1-3)]GalNAc
Summary of the method: as §1

[19] = molecular target: Neu5Ac(a2-3)Gal(b1-4)[Fuc(a1-3)]GlcNAc6S
Summary of the method: as §1

[20] = molecular target: Neu5Ac(a2-3)Gal6S(b1-4)GlcNAc
Summary of the method: as §1

[21] = molecular target: Neu5Ac(a2-3)Gal6S(b1-4)[Fuc(a1-3)]GlcNAc
Summary of the method: as §1

Neu5Ac(a2-3)GalNAc = molecular target: Neu5Ac(a2-3)GalNAc
Summary of the method: as §1

[22] = molecular target: Neu5Ac(a2-3)GalNAc(b1-4)GlcNAc
Summary of the method: as §1

[23] = molecular target: Neu5Ac(a2-3)[GalNAc(b1-4)]Gal(b1-4)Glc
Summary of the method: as §1

[24] = molecular target: Neu5Ac(a2-3)[GalNAc(b1-4)]Gal(b1-4)GlcNAc
Summary of the method: as §1

[25] = molecular target: Neu5Ac(a2-3)[Neu5Ac(a2-6)]GalNAc
Summary of the method: as §1

Neu5Ac(a2-6)Gal = molecular target: Neu5Ac(a2-6)Gal
Summary of the method: as §1

Neu5Ac(a2-6)Gal(b1-4)Glc = molecular target: Neu5Ac(a2-6)Gal(b1-4)Glc
Summary of the method: as §1

B1: mLPHN-1 (Mus musculus), Q80TR1 (protein)
chain: MARLAAALWSLCVTTVLVTSATQGLSRAGLPFGLMRRELACEGYPIELRCPGSDVIMVENANYGRTDDKICDADPFQMENVQCYLPDAFKIMSQRCNNRTQCVVVAGSDAFPDPCPGTYKYLEVQYDCVPYIFVCPGTLQKVLEPTSTHESEHQSGAWCKDPLQAGDRIYVMPWIPYRTDTLTEYASWEDYVAARHTTTYRLPNRVDGTGFVVYDGAVFYNKERTRNIVKYDLRTRIKSGETVINTANYHDTSPYRWGGKTDIDLAVDENGLWVIYATEGNNGRLVVSQLNPYTLRFEGTWETGYDKRSASNAFMVCGVLYVLRSVYVDDDSEAAGNRVDYAFNTNANREEPVSLAFPNPYQFVSSVDYNPRDNQLYVWNNYFVVRYSLEFGPPDPSAGPATSPPLSTTTTARPTPLTSTASPAATTPLRRAPLTTHPVGAINQLGPDLPPATAPAPSTRRPPAPNLHVSPELFCEPREVRRVQWPATQQGMLVERPCPKGTRGIASFQCLPALGLWNPRGPDLSNCTSPWVNQVAQKIKSGENAANIASELARHTRGSIYAGDVSSSVKLMEQLLDILDAQLQALRPIERESAGKNYNKMHKRERTCKDYIKAVVETVDNLLRPEALESWKDMNATEQVHTATMLLDVLEEGAFLLADNVREPARFLAAKQNVVLEVTVLNTEGQVQELVFPQEYPSENSIQLSANTIKQNSRNGVVKVVFILYNNLGLFLSTENATVKLAGEAGTGGPGGASLVVNSQVIAASINKESSRVFLMDPVIFTVAHLEAKNHFNANCSFWNYSERSMLGYWSTQGCRLVESNKTHTTCACSHLTNFAVLMAHREIYQGRINELLLSVITWVGIVISLVCLAICISTFCFLRGLQTDRNTIHKNLCINLFLAELLFLVGIDKTQYEVACPIFAGLLHYFFLAAFSWLCLEGVHLYLLLVEVFESEYSRTKYYYLGGYCFPALVVGIAAAIDYRSYGTEKACWLRVDNYFIWSFIGPVSFVIVVNLVFLMVTLHKMIRSSSVLKPDSSRLDNIKSWALGAIALLFLLGLTWAFGLLFINKESVVMAYLFTTFNAFQGVFIFVFHCALQKKVHKEYSKCLRHSYCCIRSPPGGTHGSLKTSAMRSNTRYYTGTQSRIRRMWNDTVRKQTESSFMAGDINSTPTLNRGTMGNHLLTNPVLQPRGGTSPYNTLIAESVGFNPSSPPVFNSPGSYREPKHPLGGREACGMDTLPLNGNFNNSYSLRSGDFPPGDGGPEPPRGRNLADAAAFEKMIISELVHNNLRGASGGAKGPPPEPPVPPVPGVSEDEAGGPGSADRAEIELLYKALEEPLLLPRAQSVLYQSDLDESESCTAEDGATSRPLSSPPGRDSLYASGANLRDSPSYPDSSPEGPNEALPPPPPAPPGPPEIYYTSRPPALVARNPLQGYYQVRRPSHEGYLAAPSLEGPGPDGDGQMQLVTSL
[1]
  glycan array binding signal (z-score): -0.207
[2]
  glycan array binding signal (z-score): -0.26
[3]
  glycan array binding signal (z-score): -0.372
Neu5Ac(a2-3)Gal(b1-4)Glc
  glycan array binding signal (z-score): -0.085
[4]
  glycan array binding signal (z-score): -0.042
[5]
  glycan array binding signal (z-score): -0.365
[6]
  glycan array binding signal (z-score): 0.068
[7]
  glycan array binding signal (z-score): 0.063
[8]
  glycan array binding signal (z-score): -0.055
[9]
  glycan array binding signal (z-score): -0.433
[10]
  glycan array binding signal (z-score): -0.402
[11]
  glycan array binding signal (z-score): -0.321
[12]
  glycan array binding signal (z-score): -0.36
[13]
  glycan array binding signal (z-score): 0.645
[14]
  glycan array binding signal (z-score): -0.127
[15]
  glycan array binding signal (z-score): -0.184
[16]
  glycan array binding signal (z-score): 0.073
[17]
  glycan array binding signal (z-score): -0.378
[18]
  glycan array binding signal (z-score): 0.142
[19]
  glycan array binding signal (z-score): 0.276
[20]
  glycan array binding signal (z-score): -0.345
[21]
  glycan array binding signal (z-score): -0.065
Neu5Ac(a2-3)GalNAc
  glycan array binding signal (z-score): 0.587
[22]
  glycan array binding signal (z-score): -0.288
[23]
  glycan array binding signal (z-score): -0.653
[24]
  glycan array binding signal (z-score): -0.307
[25]
  glycan array binding signal (z-score): -0.186
Neu5Ac(a2-6)Gal
  glycan array binding signal (z-score): -0.169
Neu5Ac(a2-6)Gal(b1-4)Glc
  glycan array binding signal (z-score): 0.002
